Whole data set: some 81,000 sequences, median “one-hybrid fitness for binding NBS DNA” near -0.1, cut for the highest 2% near 0.36. The list shows a part of the results.
B1: Caulobacter ParB omega fusion; a variant is named by its letters at X, in order, B8GW30 (parent)
chain: MESVVVGEPGMSEGRRGLGRGLSALLGEVDAAPAQAPGEQLGGSREAPIEILQRNPDQPRRTFREEDLEDLSNSIREKGVLQPILVRPSPDTAGEYQIVAGERAWRAAQRAGLKTVPIMVRELDDLAVLEIGIIENVQRADLNVLEEALSYKVLMEKFERTQENIAQTIGKSXSHVANXMRLLXLPDEVQSYLVSGELTAXHARAIAAAADPVALAKQIIEGGLSVRETEALARKAPNLSAGKSKGGRPPRVKDTDTQALESDLSSVLGLDVSIDHRGSTGTLTITYATLEQLDDLCNRLTRGI

Variants of: B1
Assay: one-hybrid fitness for binding NBS DNA (the Noc-binding site; scaled: cognate 1, non-cognate 0); higher = stronger binding
Details: with NBS DNA site
In short: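 In E. coli USO, a HIS3 reporter with its site placed 19 bp from the promoter was used to select Caulobacter ParB variants randomised at four specificity codons. Growth lasted 48 hours at 37°C on histidine-free M9 containing 0.1 mM IPTG and 5 mM 3-AT. Fitness was taken as the log change in variant-to-wild-type read ratio from Illumina sequencing of pre- and post-selection plasmids, rescaled between the non-cognate and cognate sites.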

Variant | one-hybrid fitness for binding NBS DNA
YPRR | ≤ 0.2
KQMI | ≤ 0.2
LHYS | ≤ 0.2
QVCV | ≤ 0.2
FGSS | ≤ 0.2
HVKA | ≤ 0.2
TNPL | ≤ 0.2
CRIR | ≤ 0.2
SEQQ | ≤ 0.2
SVQD | ≤ 0.2
HHLW | ≤ 0.2
PGKM | ≤ 0.2
AISI | ≤ 0.2
ESGW | ≤ 0.2
QRYT | 0.744
RTNA | 0.363
SRHC | ≤ 0.2
MWPE | ≤ 0.2
SYHG | ≤ 0.2
SDRI | ≤ 0.2
IVNL | ≤ 0.2
ICCR | ≤ 0.2
KSLF | ≤ 0.2
KGTG | ≤ 0.2
DHRT | ≤ 0.2

Variant | one-hybrid fitness for binding NBS DNA
TSNM | ≤ 0.2
LAVS | ≤ 0.2
KIMF | ≤ 0.2
MWYG | ≤ 0.2
PPGN | ≤ 0.2
MLCG | ≤ 0.2
DGNA | ≤ 0.2
PDTT | ≤ 0.2
RRVH | 0.321
EKRV | ≤ 0.2
NMDV | ≤ 0.2
KDWW | ≤ 0.2
ERSL | ≤ 0.2
HQFS | ≤ 0.2
PINC | ≤ 0.2
IVPC | ≤ 0.2
PTQG | ≤ 0.2
YMAL | ≤ 0.2
ETKL | ≤ 0.2
KPLL | ≤ 0.2
CPYN | ≤ 0.2
AFTI | ≤ 0.2
TNNY | ≤ 0.2
QHMC | ≤ 0.2
RVGL | ≤ 0.2

Variant | one-hybrid fitness for binding NBS DNA
MCSS | ≤ 0.2
RRNN | 0.493
LYYS | ≤ 0.2
TQST | ≤ 0.2
EMCR | ≤ 0.2
FPWR | ≤ 0.2
QNLK | ≤ 0.2
AYRD | ≤ 0.2
ALSG | ≤ 0.2
LPTT | ≤ 0.2
NIVR | ≤ 0.2
SCKA | ≤ 0.2
NGPS | ≤ 0.2
FYYR | ≤ 0.2
FAEG | ≤ 0.2
CHTA | ≤ 0.2
IDKY | ≤ 0.2
YSSR | ≤ 0.2
FDTC | ≤ 0.2
GFVG | ≤ 0.2
RSNV | ≤ 0.2
TMTL | ≤ 0.2
QQTI | ≤ 0.2
NMRR | ≤ 0.2
PKNM | ≤ 0.2

Variant | one-hybrid fitness for binding NBS DNA
DKIC | ≤ 0.2
STIR | ≤ 0.2
MSYR | ≤ 0.2
GRNF | ≤ 0.2
VCPA | ≤ 0.2
YDTP | ≤ 0.2
YFRC | ≤ 0.2
DLGP | ≤ 0.2
FHRS | ≤ 0.2
YGAI | ≤ 0.2
PYLY | ≤ 0.2
SPQP | ≤ 0.2
KAPR | ≤ 0.2
IYLV | ≤ 0.2
MQGD | ≤ 0.2
KMAS | ≤ 0.2
CLLG | ≤ 0.2
NCKS | ≤ 0.2
GWRC | ≤ 0.2
EHTD | ≤ 0.2
VGDS | ≤ 0.2
SLII | ≤ 0.2
DCYG | ≤ 0.2

— a collection of fitness landscapes (doi:10.1016/j.celrep.2020.107928)
